{"source": "the supplement of paper PMC8728848", "binders": {"B1": {"name": "CVNH3T (Magnaporthe grisea) (protein)", "chain": "GSHIGPYGNYAGNFSGSSRDICLDGARLRAECRRGDGGYSTSVIDLNRYLSNDNGHFRWVSGGGGGGGTATVTVQQGDTLRDIGRRFDCDFHEIARRNNIQNEDLIYPGQVLQVPTKGGSGGGAGNFWDSARDVRLVDGGKVLEAELRYSGGWNRSRIYLDEHIGNRNGELIHC"}}, "assay_in_all_cases": "glycan array binding signal (z-score within array); higher = stronger binding", "settings_in_all_cases": "glycan notation: IUPAC condensed, linker removed", "key": {"[1]": {"molecular_target": "Neu5Ac(a2-8)Neu5Ac(a2-8)Neu5Ac(a2-8)Neu5Ac(a2-3)[GalNAc(b1-4)]Gal(b1-4)Glc", "summary_of_the_method": "(§1)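 Glycan array data were curated from 3228 arrays in the Consortium for Functional Glycomics database and kept only where the protein sequence was available. Glycan names were converted to IUPAC-condensed notation, and columns mapping to the same glycan were averaged. The binding signal is a within-array Z-score, averaged across arrays of the same protein sequence at different concentrations or buffers and across linkers. Negative Z-scores can be read as non-binding.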"}, "[2]": {"molecular_target": "Neu5Ac9Ac(a2-6)Gal(b1-4)GlcNAc", "summary_of_the_method": "as §1"}, "[3]": {"molecular_target": "Neu5Gc(a2-3)Gal(b1-3)GlcNAc", "summary_of_the_method": "as §1"}, "[4]": {"molecular_target": "Neu5Gc(a2-3)Gal(b1-3)[Fuc(a1-4)]GlcNAc", "summary_of_the_method": "as §1"}, "Neu5Gc(a2-3)Gal(b1-4)Glc": {"molecular_target": "Neu5Gc(a2-3)Gal(b1-4)Glc", "summary_of_the_method": "as §1"}, "[5]": {"molecular_target": "Neu5Gc(a2-3)Gal(b1-4)GlcNAc", "summary_of_the_method": "as §1"}, "[6]": {"molecular_target": "Neu5Gc(a2-3)Gal(b1-4)[Fuc(a1-4)]GlcNAc", "summary_of_the_method": "as §1"}, "[7]": {"molecular_target": "Neu5Gc(a2-6)Gal(b1-4)GlcNAc", "summary_of_the_method": "as §1"}, "Neu5Gc(a2-6)GalNAc": {"molecular_target": "Neu5Gc(a2-6)GalNAc", "summary_of_the_method": "as §1"}}, "note": "The other results are listed elsewhere or left out."}
{"binder": "B1", "values": [{"measurement": "glycan array binding signal (z-score)", "setting": "[1]", "value": -0.235}, {"measurement": "glycan array binding signal (z-score)", "setting": "[2]", "value": -0.223}, {"measurement": "glycan array binding signal (z-score)", "setting": "[3]", "value": -0.226}, {"measurement": "glycan array binding signal (z-score)", "setting": "[4]", "value": -0.175}, {"measurement": "glycan array binding signal (z-score)", "setting": "Neu5Gc(a2-3)Gal(b1-4)Glc", "value": -0.23}, {"measurement": "glycan array binding signal (z-score)", "setting": "[5]", "value": -0.227}, {"measurement": "glycan array binding signal (z-score)", "setting": "[6]", "value": -0.222}, {"measurement": "glycan array binding signal (z-score)", "setting": "[7]", "value": -0.221}, {"measurement": "glycan array binding signal (z-score)", "setting": "Neu5Gc(a2-6)GalNAc", "value": -0.224}]}
